Experimental data published in PubChem BioAssay AID1508623 (National Center for Advancing Translational Sciences (NCATS), 2021).
Among all 48,000 compounds or so, about 450 (0.94%) were called active. Another 19% or so got no clear call; they are omitted. Calls follow the shape of the dose curve; as a rule, active = well fitted inhibition curve with a large enough effect; inconclusive = small, poorly fitted or top-dose-only effect; inactive = no such curve, though single readings can be large or run the other way. The list shows a part of the results.

Assay: Primary qHTS for Identification of Small Molecule Inhibitors of Huntingtin Promoter Activity; also: nearly all actives have a fitted effect of over 50% in size
Details: HEK293 HTT promoter firefly luciferase reporter (activity 0% = vehicle and -100% = no light), 24 h; series mostly up to 57.5 µM; activity change, negative = inhibition: at the top concentration
How it was run: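 Firefly luciferase readout (Dual-Glo, 10 min RT) after 24 h, 37 °C compound exposure (final up to 57.5 uM) of HEK293 reporter cells cultured 24 h beforehand; PTC124 at 50 uM final as control inhibitor; activity scaled vehicle 0%, zero RLU -100%.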

Activity change, negative = inhibition, inactive:
CCOC(=O)C1=C(CS(=O)(=O)c2cccc(C(F)(F)F)c2)NC(=O)NC1c1cccc(OC)c1 (stereo not given) -22.4%
COc1ccc(Cl)cc1C(=O)Nc1sc2c(c1C(=O)OC(C)C)CCCC2 -14% [at 11.5 µM]
O=C(C1CC1)N1CCc2cc(Br)cc(S(=O)(=O)N3CCN(c4cccc(C(F)(F)F)c4)CC3)c21 6.36%
CCCCOc1ccc(-c2nn(-c3ccccc3)cc2C2NC(=O)NC(C)=C2C(=O)OC)cc1 (stereo not given) -8.52%
CC(=O)N1CCc2cc(Br)cc(S(=O)(=O)N3CCN(c4cccc(C(F)(F)F)c4)CC3)c21 -5.05%
COc1ccccc1NC(=O)C1=C(C)Nc2c(C(=O)Nc3ccc(F)cc3)cnn2C1c1cccc([N+](=O)[O-])c1 (stereo not given) -10%
CCCCN(C)c1nc2c(S(=O)(=O)c3ccc(CC)cc3)nnn2c2ccc(Cl)cc12 2.67%
COc1ccc(NC(=O)Cn2c(=O)n(-c3ccc(OC)c(OC)c3)c(=O)c3ccccc32)cc1 -18.4%
COc1cc(C(CC(=O)NCc2ccc(F)cc2)N2Cc3ccccc3C2=O)cc(OC)c1OC (stereo not given) -5.61%
COc1ccc(C(F)(F)F)cc1NC(=O)c1sc2nc(-c3cccs3)ccc2c1N 38.5%
CC(=O)c1ccc(N2CCN(c3ncnc4c3c(-c3ccccc3)cn4-c3cccc(C)c3)CC2)cc1 -21.1%
CCOC(=O)c1ccc(NC(=O)c2c(-c3c(F)cccc3Cl)noc2C)cc1 -25.7%
CCC(=O)N1CCc2cc(Br)cc(S(=O)(=O)N3CCC(C(=O)NCCCOC(C)C)CC3)c21 13.4%
COC(=O)c1ccccc1NC(=O)c1ccc(COc2ccccc2Cl)o1 -9.67%
COc1ccc(C2CC(=O)c3cc(-c4nc(-c5cccc(Cl)c5)cs4)c(=O)[nH]c3C2)cc1OC (stereo not given) -8.42%
O=C(Cn1cc(C(=O)c2ccco2)c2ccccc21)Nc1ccc(Br)cc1 -4.18%
CSc1ncc2c(n1)-c1ccccc1N(Cc1ccc(Cl)cc1)S2(=O)=O -12%
O=C(CSc1ccccc1)N1CCc2c([nH]c3ccccc23)C1c1ccc(F)cc1 (stereo not given) -28.8%
COc1cccc(C(=O)Nc2cccc(C(=O)OCc3cc(=O)n4nc(C5CC5)sc4n3)c2)c1 -3.9%
Nc1c(-c2nc(-c3cccs3)no2)nnn1-c1ccc(Cl)cc1 18.8%
CCC1CCCCN1C(=O)Cn1c(=O)n(CCCCCC(=O)NCc2ccccc2)c(=O)c2sccc21 (stereo not given) -13.9%
CSc1ncc(Cl)c(C(=O)Nc2ccc(NC(C)=O)cc2)n1 -4.39%
CCCCNc1nc(Oc2ccc(OCC)nn2)nc(N2CCOCC2)n1 19.2%
COc1cccc(NC(=O)c2ccc3nc(CCc4ccccc4)oc3c2)c1 1.06%
COc1ccc(Cl)cc1NC(=O)c1c(NCc2ccc(C)o2)sc2c1CCCCC2 -10.9%
CCCn1c2ccccc2c2cnn(CC(=O)N(C)c3ccc(F)cc3)c(=O)c21 -4.53%
COc1cccc(CSc2nc3ccccc3c3nc(CCn4c(C)nc5ccccc54)nn23)c1 -24.3%
O=C(NCc1ccc2c(c1)CCN2C(=O)c1ccc(F)cc1)c1cc2ccccc2[nH]1 -5.66%
COc1ccccc1CNC(=O)CCC(=O)N1CC2CCCN2c2ccccc21 (stereo not given) -16.8%
c1ccc(CNc2nc3c(-c4ccccc4)nnn3c3ccccc23)cc1 33.7%
COc1cccc(NC(=O)C2CCCN(S(=O)(=O)c3c(C)nn(C)c3C)C2)c1 (stereo not given) -23.8%
O=C(Cc1ccc(Cl)cc1)Nc1ccc2nn(-c3ccc(Cl)cc3)nc2c1 1.35%
NC(N)=NC(N)=NCCc1ccccc1
Cc1ccc(CNC(=O)c2ccc(Cn3c(=O)c4ccccc4n(CC(=O)Nc4ccc(C)cc4C)c3=O)cc2)cc1 -8.16%
CCOc1ccc(OCC)c(NS(=O)(=O)c2cc(-c3cc(C)no3)ccc2C)c1 -13.4%
CCOc1ccc(CCNC(=O)c2cn(CC)c3ccc(S(=O)(=O)N4CCc5ccccc5C4)cc3c2=O)cc1OCC 9.16%
O=C(Nc1ccccc1-c1cn2c(CN3CCNCC3)csc2n1)c1cnc2ccccc2n1 -10.5%
COc1ccc(-c2cc(C(F)(F)F)nc(S(=O)(=O)CCCC(=O)Nc3cccc(O)c3)n2)cc1OC -9.41%
CCC(=O)Oc1ccc(/C=C(\C#N)c2nc3ccccc3[nH]2)cc1OC 15.8%
CCc1ccc(NCc2cc3cc4c(cc3n(CC(=O)Nc3ccc(C)cc3)c2=O)OCO4)cc1 -24.5%
CCOc1ccc(NC(=O)C2CCCN(S(=O)(=O)c3cccc4nonc34)C2)cc1 (stereo not given) -17.8%
Cc1ccc(Nc2c(-c3cccs3)nc3nc(C)cc(C)n23)cc1 46.4%
CC(=O)c1ccc(NC(=O)CSc2nnc3ccc(-c4ccc(Cl)cc4)nn23)cc1 -8.27%
Cc1oc2ncnc(N3CCCCC3)c2c1C(=O)N1CCN(c2cccc(C(F)(F)F)c2)CC1 -15.3%
CCOc1ccc(NC(=O)NCc2c(-n3cccc3)sc3c2CCCC3)cc1 -15.3%
CCN(CC)c1cc(C)c2cc(NC(=O)c3ccccc3OC)ccc2n1 -3.11%
Cc1cc(C)c(NC(=O)CSc2nc3nc(C)cc(C)n3n2)c(C)c1 33.3%
Cc1cc(C)c(NC(=O)CSc2ccc(-c3sc(-c4ccccc4)nc3C)nn2)c(C)c1 -9.25%
CCCCn1c(SCC(=O)NCCCOC)nc2c(sc3ccccc32)c1=O -8.88%
CCn1c(=O)c2sccc2n2c(CCCC(=O)N3CCN(c4cc(Cl)ccc4C)CC3)nnc12 -9.33%
COc1ccccc1N1CCN(c2ncccc2-c2nc(-c3ccc(Cl)cc3)no2)CC1 21.7%
C[C@H](CCC(=O)O)[C@H]1CCC2C3C[C@H](O)[C@@H]4C[C@H](O)CC[C@]4(C)C3CC[C@@]21C (stereo not given in full) -3.34%
CCCCOc1cccc(C2c3c(oc4ccccc4c3=O)C(=O)N2c2ccccn2)c1 (stereo not given) -5.41%
O=c1c2c(-c3ccccc3)ccnc2[nH]n1-c1ccccc1 41.5%
CCCC1=Nc2cc(C(=O)NC(C)c3ccccc3)ccc2Sc2ccc(C)cc21 (stereo not given) -32.1%
Cc1nn(C(=O)c2c(F)cccc2F)c(C)c1S(=O)(=O)N1CCOCC1 -15.9%
COc1ccc(CCNC(=O)c2ccc3c(c2)N(Cc2ccccc2F)C(=O)c2ccccc2S3(=O)=O)cc1OC 22.3%
O=C(NCCc1ccccc1)c1cc(S(=O)(=O)N2CCCCC2)c[nH]1 -23.6%
CCOC(=O)c1cnc2c(ccc3ccccc32)c1Nc1cccc(OC)c1 -32.3% [at 11.5 µM]
Cc1cccc(N2CCN(C(=O)c3cc4c(=O)oc5ccccc5c4s3)CC2)c1C -4.03%
Cc1cc(C(F)F)n2nc(C(=O)Nc3c(C)cccc3C)nc2n1 -5.23%
CCOc1ccc(C(=O)c2cn(Cc3ccccc3OC)c3ccc(F)cc3c2=O)cc1 -4.51%
Oc1c(C(c2ccccc2Cl)N2CCCC2)sc2nc(-c3ccco3)nn12 (stereo not given) -27.8%
CC(=O)Nc1ccc(NC(=O)CSc2nc3ccccc3nc2N2CCOCC2)cc1 -11.9%
CCOc1ccc(N(CC(=O)NCc2ccccc2Cl)S(=O)(=O)c2c(C)[nH]c(=O)[nH]c2=O)cc1 24.2% [at 11.5 µM]
COc1ccc(-n2c(CC3C(=O)N(C)c4ccc(C)cc43)nc3ccccc3c2=O)cc1 (stereo not given) -12.7%
COc1ccc(CCNc2ncnc3c2cnn3-c2ccc(C)cc2)cc1 -15.6%
O=C(O)[C@H](O)c1ccccc1 0.475%
Fc1ccc(CN2CCc3nc(Nc4ccccc4)ncc3C2)cc1F -30%
COc1ccc(-c2noc(CNC(=O)c3ccco3)n2)cc1 -4.67%
Cc1ccc(CNC(=O)CSc2cc(C)[nH]c(=O)n2)cc1 -9.39%
CC1CCN(C(=O)CSc2nc(-c3ccccc3)no2)CC1 21.6%
COc1cc(C(=O)N2CCC(c3nc4ccccc4o3)CC2)cc(OC)c1OC 0.147%
COc1ccc(C(c2c(O)cc(C)n(Cc3ccco3)c2=O)N2CCCCC2)cc1OC (stereo not given) -4.5%
C(=C\c1ccccc1)/CN1CCN(C(c2ccccc2)c2ccccc2)CC1 0.915%
CCN(CC)CC(=O)Oc1ccc(NC(C)=O)cc1 -0.0227%
COc1cc(Cl)c(C)cc1NC(=O)c1ccc2c(Cl)c3c(nc2c1)CCC3 -2.89%
CCOc1cccc(CC(=O)N2CCc3c([nH]c4ccccc34)C2c2ccc(Cl)cc2)c1OCC (stereo not given) -26.3%
CCOc1ccccc1NC(=O)c1c(NC(=O)c2ccccc2)sc2c1CCCC2 -25.9%
CCOc1ccccc1CNC(=O)c1cnc2sc(N3CCCCCC3)nn2c1=O -16.4%
CCc1ccc(Oc2c(C(F)(F)F)oc3c(CN4CCN(C)CC4)c(O)ccc3c2=O)cc1 -21.3%
O=C(Cn1cc(SCc2cccc(Cl)c2)c2ccccc21)N1CCCCCC1 -13.9%
COc1ccc(-n2ccn(CC(=O)NCCc3ccccc3)c(=O)c2=O)cc1OC -16.2%
COc1ccccc1CN(Cc1ccco1)c1cnc(S(C)(=O)=O)nc1C(=O)Nc1cc(C)ccc1C -19.9%
COc1cccc(CNC(=O)Cn2ncc3c4ccccc4n(Cc4ccccc4)c3c2=O)c1 3.07%
COc1cccc(C(=O)NCc2nc(-c3ccccc3)no2)c1OC -15%
O=S(=O)(O)c1ccc(O)cc1 9.63%
Cc1cccc(NC(=O)CCc2c(C)nc3nc(CNC(=O)c4cccc(F)c4)nn3c2C)c1 19.2%
COc1ccc(-c2noc(CSc3nnc(-c4ccncc4)n3-c3ccc(C)cc3)n2)cc1OC -3.4%
O=C(Cn1c(=O)n(Cc2ccc3c(c2)OCO3)c(=O)c2oc3ccccc3c21)Nc1ccc(F)cc1 -9.12%
CCn1cc(CNC(=O)c2cc(-c3ccc(C)c(C)c3)nc3ccccc23)c(C)n1 -14%
CC1CCCCN1C(=O)Cn1c(SCC(=O)N(C)c2ccccc2)nc2ccccc21 (stereo not given) 2.55%
Cc1ccc(NC(=O)c2ccc(=O)n(CC(=O)Nc3cccc(C)c3)n2)cc1 -17.6%
O=C(C1CCCCC1)N1CC(=O)N2CCc3ccccc3C2C1 (stereo not given)
Cc1cccc(C(c2sc3nc(-c4ccco4)nn3c2O)N2CCN(c3ccccc3)CC2)c1 (stereo not given) 3.53%
